We go through 108 molecules from PubChem BioAssay AID1625 (Sanford-Burnham Center for Chemical Genomics, 2009).

Several values for one entry are separate records, joined by “and”; a condition that tells them apart may be missing. Equal entries are not always repeated. The list shows a part of the results. The main result of the screen is listed elsewhere. These columns were measured beside it and carry no call. Compounds called inactive in the main read-out are mostly missing here.

A short description of this assay: up-regulation of insulin promoter-GFP reporter – imaging, high-content screening, mouse beta cells (AID 1625).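 Further: total cells summed across four imaged fields per well.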 To be noted: MIN6 insulin promoter-GFP reporter, measured here: cytotoxicity, nuclei count, at 5 µM.
`COc1ccccc1N1CCN(C(c2ccccc2)c2nnnn2CCc2ccccc2)CC1` (stereo not drawn) returned a cell count of 466 cells.

In turn, `CCN(CC)Cc1cc2[nH]c3c4ccc(Cl)cc4ncc3c2cc1OC` gave a cell count of 403 cells.

With `C(#Cc1ccccc1)C[N+]1(CC#Cc2cccc3ccccc23)CCCC1`, the cell count came to 194 cells.

Take `CCCCCCOC(=O)C[N+](C)(C)CCOC1CC2CCC1(C)C2(C)C` (stereo not drawn): the cell count was determined as 427 cells.

As for `COc1cc(CNCc2ccccn2)ccc1OCc1c(Cl)cccc1Cl`, the cell count came out at 488 cells.

`CSc1nc2ccccc2n1Cc1cccc([N+](=O)[O-])c1` came in with a cell count of 463 cells.

As for `COC(CNC(=O)c1ccc(Cn2c(=S)[nH]c3cc4c(cc3c2=O)OCO4)cc1)OC`, the cell count came out at 1110 cells.

Molecule `CCCCCc1ccc(OCCCC[n+]2ccc(C)cc2)c(CCCCC)c1` showed a cell count of 434 cells.

`Cc1cc(C)n2nc(SCC(=O)c3cc(C)n(-c4cc(C)on4)c3C)nc2n1`: the cell count worked out at 401 cells.

The molecule `C/C(=N\NC(=O)c1ccco1)c1ccc(NC(=O)c2ccccc2)cc1` returned a cell count of 489 cells.

For `CCCCN1C(=O)/C(=C/C=C2\SCCN2C)SC1=S`, the cell count is 1340 cells.

Molecule `CCc1ccccc1NC(=O)CN(C)C(=O)Cn1ncc(Cl)c(Cl)c1=O` registered a cell count of 434 cells.

For `CCC(C)(C(=O)NC1CCCC1)N(C(=O)CNC(C)=O)c1ccccc1` (stereo not drawn), the cell count was 1250 cells.

On to `c1ccc(-c2csc3ncnc(NCCCN4CCOCC4)c23)cc1`, for which the cell count was determined as 463 cells.

The molecule `CCOC(=O)c1cnc(-n2nc(C)cc2C)nc1NC1CCCCC1` displayed a cell count of 420 cells.

`CCCCCc1cc(=O)oc2c(C(CCN3CCCC(C)C3)c3ccc4c(c3)OCO4)c(OC)cc(OC)c12` (stereo not drawn) showed a cell count of 288 cells.

Consider `CN(C)C(=O)C1C2NC(=S)N(c3cccc(Cl)c3)C1(C)Oc1ccc(Cl)cc12` (stereo not drawn), for which the cell count was 1430 cells.

The molecule `O=C(Nc1ccc([N+](=O)[O-])cc1)Nc1ccc(OC(F)F)c(Cl)c1` came in with a cell count of 338 cells.

The molecule `O=C(/C(=C/c1ccc(Cl)cc1)c1nc2ccccc2[nH]1)c1cccs1` returned a cell count of 442 cells.

`N=c1c2c(n(Cc3ccc(Cl)c(Cl)c3)c3c1CCC3)CCCC2` had a cell count of 319 cells.

`CCOC(=O)c1c(CSC(=N)N)n(-c2ccc(Br)cc2)c2cc(Br)c(OC(C)=O)cc12`: the cell count is 315 cells.

With `C[n+]1c2n(c3ccccc31)N=C(c1cc(C(C)(C)C)c(O)c(C(C)(C)C)c1)CS2`, the cell count came out at 203 cells.

With `C=CCNC(=O)/C(=C\c1ccc(Br)cc1)NC(=O)c1ccccc1OC`, the cell count worked out at 870 cells.

Molecule `C=CCn1c(C)cc(C(=O)Cn2ncc(Cl)c(Cl)c2=O)c1C` gave a cell count of 393 cells.

With `CCOC(=O)c1ccc(NC(=O)Cn2cnc3cc(C)c(C)cc32)cc1`, the cell count turned out to be 381 cells.

Molecule `COc1cccc(C(=O)Nc2ccccc2C(=O)N2CCCC2)c1` gave a cell count of 781 cells.

The molecule `O=C(c1cc2ccccc2oc1=O)N(c1ccc(Cl)cc1)C1C=CS(=O)(=O)C1` (stereo not drawn) came in with a cell count of 439 cells.

`O=C(N/N=C/c1ccco1)c1cc(C2CC2)nc2ccccc12` came in with a cell count of 465 cells.

In the case of `Cc1ccc(S(=O)(=O)C(C#N)c2nc3ccccc3nc2N2CCC(C)CC2)cc1` (stereo not drawn), the cell count turned out to be 1190 cells.

In turn, `O=C1S/C(=C\c2ccc(N3CCOCC3)o2)C(=O)N1c1ccccc1` returned a cell count of 1260 cells.

For `N=C1N(/N=C/c2ccccc2)C(=Nc2ccccc2)C(=S)N1c1ccccc1`, the cell count was 466 cells.

In the case of `Cc1ccc(S(=O)(=O)Cc2ccc(C(=O)N3CCc4ccccc4C3)o2)cc1`, the cell count was 439 cells.

Consider `COc1ccc(-c2c[n+]3c(n2-c2ccc(C)cc2)CCCCC3)cc1`, for which the cell count was 290 cells.

Consider `CCN(CC)c1ccc2cc(-c3nc(-c4ccc(OC)cc4)cs3)c(=O)oc2c1`, for which the cell count stood at 1480 cells.

Molecule `CCCN(CCC)S(=O)(=O)c1ccc(C(=O)OCCN2C(=O)c3cccc4c(N5CCOCC5)ccc(c34)C2=O)cc1` had a cell count of 1130 cells.

Molecule `COc1ccccc1-n1c(=O)[nH]c2c(C(N)=O)nc(-c3cccnc3)nc21` registered a cell count of 463 cells.

Take `CCc1ccc(C2C(C#N)=C(N)C(C#N)(C#N)C3=CCC(C(C)(C)C)CC32)cc1` (stereo not drawn): the cell count was 321 cells.

Consider `COc1ccc(NC(=O)CSc2nnc(-c3cccs3)n2C)cc1OC`, for which the cell count was determined as 1160 cells.

In turn, `CC(=O)c1cc(F)c(N2CCCCCC2)cc1C` showed a cell count of 463 cells.

Turning to `CC(C)N1CCc2c(sc(NC(=O)c3cc4cc([N+](=O)[O-])ccc4s3)c2C(N)=O)C1`, the cell count came out at 1410 cells.

On to `CCOC(=O)c1sc2nc(C)c3c(c2c1N)CC(C)(C)OC3`, for which the cell count came out at 472 cells.

Consider `CCOc1ccc(OCc2ccc(C(=O)N/N=C(\C)c3ccccn3)cc2)cc1`, for which the cell count was found to be 296 cells.

Take `CCCCCCCCCCCCCCCCn1cc[n+](C)c1`: the cell count is 239 cells and 332 cells.

`O=S(=O)(Nc1cc2nc3ccccc3nc2n1Cc1ccccc1)c1ccc(Cl)cc1`: the cell count came out at 1290 cells.

In turn, `CCOC(=O)Cn1c(=O)oc2cc(S(=O)(=O)NC(C)c3ccccc3)ccc21` (stereo not drawn) came in with a cell count of 478 cells.

The molecule `CCN(CC)S(=O)(=O)c1cccc(C(=O)N[C@H](C(=O)O)C(C)C)c1` yielded a cell count of 282 cells.

Consider `CCOC(=O)c1[nH]c2c(c1-c1ccc(OC)cc1)C(=O)CC(c1ccc(OC)c(OC)c1)C2` (stereo not drawn), for which the cell count came out at 398 cells.

Regarding `O=S(=O)(Cc1ccc(Cl)cc1)c1ccccc1-c1nnc(-c2ccccc2)o1`, the cell count was 1460 cells.

For `Cc1nc2ccccc2c2oc(C(=O)Nc3ccc4c(c3)OCCO4)cc12`, the cell count was 400 cells.

The molecule `COC(=O)c1cc(NC(=O)c2ccccc2)c(=O)oc1/C=C/Nc1ccc(Oc2ccccc2)cc1` came in with a cell count of 1220 cells.

With `c1ccc(-c2csc(-n3cnnn3)n2)cc1`, the cell count is 1070 cells.

The molecule `CCN(CC)c1ccc(/C=N/N(c2ccccc2)c2ccccc2)c(O)c1` gave a cell count of 465 cells.

With `COC(=O)c1sc2ccccc2c1-n1cccc1C(=O)C(=O)Nc1ccc(F)cc1`, the cell count stood at 1580 cells.

Regarding `Cc1ccc(NC2=C/C(=N\S(=O)(=O)c3cccs3)c3ccccc3C2=O)c(C)c1`, the cell count worked out at 348 cells.

On to `CCN(CC)c1ccc2cc(C(=O)Nc3ccccn3)c(=O)oc2c1`, for which the cell count came to 1230 cells.

`Cc1cc(/C=C2\NC(=S)N(C)C2=O)ccc1N1CCCC1` registered a cell count of 1460 cells.

With `CCOc1ccc(-c2c[n+]3c(n2-c2ccccc2)CCCCC3)cc1`, the cell count turned out to be 403 cells.

For the molecule `Cn1ncc2c1ncn1nc(CCc3ccccc3)nc21`, the cell count was determined as 1470 cells.

As for `Cc1ccc(S(=O)(=O)Nc2ccc3ncccc3c2)cc1`, the cell count came out at 341 cells.

On to `Cc1ccc(SCc2cc(-c3ccc(Cl)cc3)no2)cc1`, for which the cell count stood at 1320 cells.

In turn, `N=c1c2c(n(Cc3ccccc3)c3c1CCC3)CCC2` returned a cell count of 201 cells.

`Cc1ccc(S(=O)(=O)CCSc2nc(C)cc(C(F)(F)F)c2C#N)cc1` gave a cell count of 853 cells.

Consider `COc1cc(CNCc2ccco2)ccc1OCc1ccccc1`, for which the cell count turned out to be 418 cells.

`COc1ccc2nc(SCC(=O)Nc3c(C)cccc3C)[nH]c2c1`: the cell count is 1420 cells.

In the case of `O=[N+]([O-])c1ccc(-c2nc(C(Cl)Cl)c3ccccc3n2)cc1`, the cell count is 333 cells.

Take `O=C(Nc1ccc(S(=O)(=O)N2CCOCC2)cc1)c1ccc(CN2CCc3ccccc3C2)cc1`: the cell count came to 160 cells.

For the molecule `CC[n+]1c(/C=C2\Sc3ccccc3N2C)ccc2cccc(C)c21`, the cell count turned out to be 310 cells.

Consider `Cc1cc(C)c2nc3sc(C(=O)N4CCOCC4)c(N)c3cc2c1`, for which the cell count turned out to be 393 cells.

In the case of `O=C1c2cccc3c(O)ccc(c23)C(=O)N1Cc1ccco1`, the cell count turned out to be 1390 cells.

The molecule `COc1ccc(CN=Cc2[nH]c3ccc(Br)c(Cl)c3c2O)cc1` came in with a cell count of 1780 cells.

Regarding `N#C/C(=C\c1ccc(N2CCOCC2)o1)c1nc2ccccc2[nH]1`, the cell count amounted to 1420 cells.

Regarding `CCN1CCN(C2=CC3=CC(=C(C#N)C#N)CCC3CC2)CC1` (stereo not drawn), the cell count is 1300 cells.

`OCCCNc1cc(-c2ccnc(Nc3cccc(Cl)c3)n2)ccn1` displayed a cell count of 322 cells.

On to `Cc1ccc2[nH]c3c(N4CCN(Cc5ccc6c(c5)OCO6)CC4)ncnc3c2c1`, for which the cell count is 208 cells.

For `O=C(/C=C/c1c(F)cccc1Cl)Nc1ccncc1`, the cell count turned out to be 451 cells.

Consider `Cc1ccc(/C(=N\O)c2oc3c(C)c4oc(=O)cc(C)c4cc3c2C)cc1`, for which the cell count worked out at 472 cells.

`Nc1ncnc2nc(SCCOc3ccc(Cl)cc3)[nH]c12`: the cell count amounted to 462 cells.

`CCn1c(SCC(=O)OC(C)C)nnc1-c1cccc(Cl)c1` had a cell count of 288 cells.

Turning to `CCCN1CC=C2C(C#N)=C(N)C(C#N)(C#N)C(c3cccc(OC)c3OC)C2C1` (stereo not drawn), the cell count was 1910 cells.

In the case of `CCCCN(C)CC(O)Cn1cc(/C=C/C(=O)c2cccs2)c2ccccc21` (stereo not drawn), the cell count was 1290 cells.

Molecule `Cc1onc(-c2ccccc2)c1C(=O)NC(=S)NNC(=O)c1ccc(O)cc1` displayed a cell count of 469 cells.

`O=C(NCc1cn2ccccc2n1)c1ccco1` registered a cell count of 1920 cells.

On to `NS(=O)(=O)c1cccc2cccnc12`, for which the cell count came out at 992 cells.

With `CCCCOCCCNc1ncnc2c1[nH]c1ccccc12`, the cell count was 432 cells.

For the molecule `N#C/C(=C\c1ccc(N2CCCCC2)o1)C(N)=O`, the cell count is 1390 cells.

`O=c1c(Cl)c(Cl)cnn1Cc1nnc(-c2ccccc2Br)o1` yielded a cell count of 200 cells.

As for `CCC(CO)[n+]1c(C)cc(/C=C2\Sc3ccccc3N2Cc2ccccc2)cc1C` (stereo not drawn), the cell count came to 475 cells.

`O=C(Nc1ccc2c(c1)CCC2)C1CCN(c2c3c(nc4ncnn24)CCC3)CC1` had a cell count of 307 cells.

With `CCOC(=O)CNC(=O)/C=C/c1c(Cl)cccc1Cl`, the cell count came to 380 cells.

In the case of `CCCCCCCCn1c2c(c(=N)c3c1CCC3)CCCC2`, the cell count came to 302 cells.

The molecule `CCC(=O)NC(c1ccccc1OC)c1ccc2cccnc2c1O` (stereo not drawn) displayed a cell count of 251 cells.

`COc1ccc2nc(SCC(C)=O)c(C#N)cc2c1` yielded a cell count of 1120 cells.

With `CC(C)(C)C(=O)/C(=C\c1cccc([N+](=O)[O-])c1)n1cncn1`, the cell count was 225 cells.

Molecule `Cc1ccc(-c2c[n+](Cc3ccc(Cl)cc3)c3n2CCC3)cc1` registered a cell count of 421 cells.

Turning to `Cc1ccc([N+](=O)[O-])cc1NC(=O)c1cccs1`, the cell count is 1270 cells.

Regarding `CCOC(=O)c1cnc2sc3c(n2c1=O)CCCC3`, the cell count was 301 cells.

In the case of `O=C(Nc1nnc(-c2ccccc2)o1)Nc1ccccc1Cl`, the cell count worked out at 1820 cells.

For `Cc1ccc(/C=N/NC(=O)c2cc(C3CC3)nc3ccccc23)o1`, the cell count was 499 cells.

For `O=C1C(=O)c2c(C(=O)c3ccccc3)coc2-c2ccccc21`, the cell count worked out at 243 cells.

Molecule `CCOc1ccccc1-c1c2cc(O)c(=O)cc-2oc2cc(O)c(O)cc12` returned a cell count of 1500 cells.

With `Cc1cccc(N=Nc2ccc(O)c3ncccc23)c1`, the cell count was 420 cells.

As to `CCOC(=O)c1sc(NC(=O)c2sccc2C)cc1C`, the cell count stood at 1020 cells.

Regarding `CCOC(=O)c1nn(-c2ccc(Cl)cc2Cl)c(=N)c(C#N)c1C`, the cell count worked out at 993 cells.

In turn, `COc1ccc(Cl)cc1NC(=O)c1c(-c2ccccc2)noc1C` gave a cell count of 1330 cells.

`Cc1ccc(C[n+]2cc(-c3ccc(Cl)cc3)n3c2CCC3)cc1` had a cell count of 401 cells.

`CC(=O)Nc1ccc(NC2=C/C(=N/S(=O)(=O)c3cccs3)c3ccccc3C2=O)cc1` showed a cell count of 481 cells.

Regarding `Cc1cc(N2CCCC2)ccc1/C=C1\NC(=S)N(C)C1=O`, the cell count amounted to 1340 cells.

`Clc1ccc(-c2cn(-c3ccc(Cl)cc3)c3[n+]2CCCCC3)cc1` came in with a cell count of 430 cells.
